Assay results reported in PubChem BioAssay AID686970 (National Center for Advancing Translational Sciences (NCATS), 2013).
The campaign covered roughly 360,000 compounds. About 6,000 (1.7%) were called active. The shares of active, inactive and inconclusive entries below differ from those in the screen. Calls come from the whole dose curve; as a rule, active = well fitted cell-killing curve with a large enough effect; inconclusive = small, poorly fitted or top-dose-only effect, or effect the other way; inactive = flat fitted curve, though single readings scatter. Potencies of inconclusive entries are left out as doubtful fits.
Potency is the fitted concentration of half-maximal effect; tags give direction and shape of the fitted curve.

Assay: qHTS for induction of synthetic lethality in tumor cells producing 2HG: qHTS for the HT-1080-NT fibrosarcoma cell line;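 note: NT is the 2HG producing partner of a matched IDH1 knockdown line; nearly all actives have a fitted effect of over 55% in size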;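 for activity, negative = less viability: 0% = DMSO-treated cells and -100% = media-only wells without cells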
Settings: HT-1080-NT fibrosarcoma viability, CellTiter-Glo ATP luminescence, 48 h; activity, negative = less viability: at 46.1 µM (top of the series) unless noted
Outline: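 HT-1080-NT; 750 cells/well; 5% FBS RPMI; 48 h compound, 37 degrees C; CellTiter-Glo luminescence; curve fitting and curve-class assignment.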
For `COc1ccc2[nH]c(C)c(CCNC(=S)Nc3ccc(C)cc3)c2c1`, the Potency was “inactive”. For `Cc1ccccc1CCNC(=O)c1cc(C2CC2)nc2c1cnn2C(C)C`, the Potency was “inactive”. For `Brc1cccc(CNc2nc3ccccc3n2CCN2CCCCC2)c1`, the Potency was inconclusive [cytotoxic, single point]. For `CCOC(=O)C1=C(C)N=c2sc(=Cc3cc(Cl)c(OCC(=O)O)c(OC)c3)c(=O)n2C1c1ccccc1Cl` (stereo not given), the Potency was inconclusive [cytotoxic, single point]. For `COc1cc(C2C3=C(CCCC3=O)Nc3ccc4ncccc4c32)ccc1O` (stereo not given), the Potency was inconclusive [cytotoxic, full curve, poor fit]. With `C[C@H](CO)N1C[C@H](C)[C@@H](CN(C)Cc2cncnc2)Oc2cc(Br)ccc2S1(=O)=O` the Potency was “inactive”. For `O=C(Nc1ccc(Cl)cc1)Nc1ccccc1C(=O)NCc1ccco1`, the Potency was inconclusive [cytotoxic, single point]. In the case of `CN(CC(=O)NCc1ccc(F)cc1)CC(=O)Nc1ccc(Cl)c(C(F)(F)F)c1`, the Potency is reported as inconclusive [cytotoxic, partial curve]. With `CC(=O)N1C[C@H]2CON(C)[C@H]2C[C@H]1c1ccccc1` the Potency was inconclusive [rising, single point]. With `COc1cccc(CNC(=O)CSc2ccc(-c3cccs3)nn2)c1` the Potency was “inactive”. With `COc1cc(-c2nnc(SCC(=O)N(C)C3CCS(=O)(=O)C3)o2)cc(OC)c1OC` (stereo not given) the Potency was “inactive”. For `COc1ccccc1NC(=O)c1ccc2nc(C)sc2c1`, the Potency was “inactive”. In the case of `N#Cc1ccccc1OCC(=O)NNC(=O)CCNC(=O)c1ccccc1`, the Potency is reported as “inactive”. With `COc1cccc(-c2cc(C(=O)Nn3cnnc3)c3ccccc3n2)c1` the Potency was inconclusive [cytotoxic, single point]. With `CCCCN(CC)C(=O)CSc1nc2n[nH]c(C)c2c(=N)n1-c1cccc(C)c1` the Potency was “inactive”. With `Cc1ccc(NC(=O)CCc2c(C)nn(-c3ccc(N4CCOCC4)nn3)c2C)c(C)c1` the Potency was “inactive”. For `CCN(CC)CC(=O)Nc1ccc(Oc2ccc(NC(=O)CN(CC)CC)cc2)cc1`, the Potency was inconclusive [cytotoxic, single point]. In the case of `O=S(c1cc(Cl)cc(Cl)c1O)c1cc(Cl)cc(Cl)c1O`, the Potency is reported as inconclusive [cytotoxic, single point]. In the case of `Cc1ccc2nc(CCCc3nc4ccc(C)cc4[nH]3)[nH]c2c1`, the Potency is reported as inconclusive [cytotoxic, single point]. In the case of `O=c1cc(CN2CCN(S(=O)(=O)c3ccc4ccccc4c3)CC2)nc2sccn12`, the Potency is reported as “inactive”. For `Cc1nn(CC(=O)NC(C)C)c(C)c1[N+](=O)[O-]`, the activity, negative = less viability was inconclusive: 30.7%. With `COc1ccccc1OCCCCN1CCN(C(c2ccccc2)c2ccccc2)CC1` the Potency was inconclusive [cytotoxic, single point]. In the case of `COc1ccc2c(c1)C(C)=CC(C)(C)N2C(=O)CSc1nnc(-c2ccc(C)cc2)o1`, the Potency is reported as inconclusive [cytotoxic, single point]. For `O=C(Nc1nccs1)c1ccc(S(=O)(=O)NCc2cccs2)cc1`, the Potency was inconclusive [cytotoxic, single point]. With `Cc1ccc(Cl)cc1N1CCN(C(=O)Cc2cn(C)c3ccccc23)CC1` the Potency was inconclusive [cytotoxic, single point]. In the case of `Cn1cnc(S(=O)(=O)N2CCCCC2c2cc(C(=O)Nc3ccc(F)c(Cl)c3)no2)c1` (stereo not given), the Potency is reported as “inactive”. With `COc1ccc(-c2csc(NC(=O)CN3C(=O)CCC3=O)n2)cc1OC` the Potency was “inactive”. With `C[C@@H]1[C@H]2[C@@H]3CC[C@@H](C3)[C@H]2CN[C@H]1c1cn(Cc2ccccc2)c2ccccc12` the Potency was “inactive”. With `CCC(COC)Oc1cc(NCc2ccccc2)c2ncn(C(C)C)c2c1` (stereo not given) the Potency was inconclusive [cytotoxic, single point]. For `CCOC(=O)c1c(C)[nH]c(C(=O)Cn2nnc(-c3ccccc3)n2)c1C`, the Potency was inconclusive [cytotoxic, single point]. In the case of `C[C@H](CO)N1C[C@H](C)[C@@H](CN(C)C(=O)Nc2ccc(C(F)(F)F)cc2)Oc2c(NC(=O)Nc3ccc(C(F)(F)F)cc3)cccc2C1=O`, the Potency is reported as inconclusive [cytotoxic, single point]. For `O=C(COc1ccc(S(=O)(=O)NC2CCCCC2)cc1)N1CCN(c2ccc(F)cc2)CC1`, the Potency was inconclusive [cytotoxic, single point]. In the case of `COc1ccc(CNc2cc(C)nc3ncnn23)c(OC)c1`, the activity, negative = less viability is reported as inconclusive: -34.1% [cytotoxic]. In the case of `CCn1c(SCC(=O)N/N=C/c2c[nH]c3ccccc23)nnc1-c1ccc(C(C)(C)C)cc1`, the Potency is reported as inconclusive [cytotoxic, partial curve]. For `Cc1nc(SCC(=O)c2ccccc2)c(C#N)c(-c2ccco2)c1C(=O)NCc1ccco1`, the Potency was inconclusive [cytotoxic, single point]. With `Nc1c(C(=O)N2CCCCCC2)oc2ccccc12` the Potency was “inactive”. In the case of `Cc1cccc(/C=C2\Sc3ccc(C(=O)N4CCC(C)CC4)cc3N(C)C2=O)c1`, the Potency is reported as inconclusive [cytotoxic, single point]. With `CCC(C)C(=O)OC1CCC=C2C=CC(C)C(CCC3CC(O)CC(=O)O3)C21` (stereo not given) the Potency was active: 11.6 µM. With `CNc1nc(NCc2ccccc2)c2ccccc2n1` the Potency was inconclusive [cytotoxic, single point]. In the case of `COc1cc(/C=C/C(=O)c2ccc3c(c2)OCCO3)cc(Br)c1OCC(=O)N(C)C`, the Potency is reported as active: 4.61 µM. For `Cc1ccc(NC(=O)CNc2cccc(S(=O)(=O)N3CCCC3)c2)cc1F`, the Potency was inconclusive [cytotoxic, single point]. With `CCCN(C)C[C@@H]1OCCCC[C@@H](C)Oc2ccc(NC(=O)c3ccccc3)cc2C(=O)N([C@H](C)CO)C[C@@H]1C` the Potency was inconclusive [cytotoxic, single point]. With `CCOC(=O)Cc1c(C)nc2c(-c3ccc(Cl)cc3)cnn2c1C` the Potency was inconclusive [cytotoxic, single point]. For `C=C(C)c1cccc(C(C)(C)NC(=O)Nc2ccc(Cl)cn2)c1`, the Potency was inconclusive [cytotoxic, single point]. With `NNC(=O)c1ccc(COc2ccc3ccccc3c2)cc1` the Potency was inconclusive [cytotoxic, single point]. For `O=C(N/N=C/c1cccc(Oc2ccccc2)c1)c1cccc(O)c1`, the Potency was inconclusive [cytotoxic, partial curve]. With `N/C(Cc1ccc(Cl)cc1)=N\OC(=O)c1cccc2ccccc12` the Potency was inconclusive [cytotoxic, single point]. In the case of `COc1cccc(C(=O)Nc2ccc(NC(=O)c3cc4ccccc4o3)c(OC)c2)c1`, the Potency is reported as “inactive”. With `O=C(NCc1ccco1)c1ccc([N+](=O)[O-])o1` the Potency was inconclusive [cytotoxic, single point]. For `CN(C)c1ncnc2c1ccn2C1OC(CO)C(O)C1O` (stereo not given), the Potency was active: 4.11 µM. In the case of `O=C(NCCCN1CCOCC1)c1cc(S(=O)(=O)N2CCCCC2)ccc1Cl`, the Potency is reported as “inactive”. With `COC(=O)c1c(NC(=O)/C=C/C(=O)O)sc(C)c1-c1ccc(C)cc1` the Potency was inconclusive [cytotoxic, single point]. For `CCOC(=O)c1sc(SCC(=O)Nc2ccc(N(C)C)cc2)nc1N`, the Potency was “inactive”. For `CCCCCCn1c(=O)n2n(c1=O)[C@@H]1CN(S(=O)(=O)c3ccc(C)cc3)C[C@]1(O)[C@@H](OC(=O)NCc1ccccc1F)C2`, the Potency was inconclusive [cytotoxic, single point]. In the case of `C=CCn1c(SCc2ccccc2)nc2scc(-c3ccc(C)o3)c2c1=O`, the activity, negative = less viability is reported as inconclusive: 31%. With `Cc1cc2c3c(c1C)C1(C(=O)N3C(C)(C)CC2C)C(C#N)=C(N)Oc2cc(O)ccc21` (stereo not given) the Potency was inconclusive [cytotoxic, single point]. For `COc1ccc(-c2oc3cc(O)c(OC)c(O)c3c(=O)c2OC)cc1`, the Potency was inconclusive [cytotoxic, single point]. In the case of `CCc1ccc(-c2nc(NC(=S)NC(=O)c3cccs3)sc2C)cc1`, the activity, negative = less viability is reported as inconclusive: -2.53% [cytotoxic]. In the case of `O=C(O)CS(=O)(=O)c1ccc(C(F)(F)F)cn1`, the Potency is reported as “inactive”. With `Clc1ccccc1OCc1nnc2n1CCCCC2` the Potency was “inactive”. In the case of `CCn1ccnc1CN1CCc2c([nH]c3ccccc23)C1C(C)(C)C` (stereo not given), the Potency is reported as “inactive”. In the case of `Cc1ccc(-c2nc3ccc(C)cn3c2Cc2ccccc2C(F)(F)F)cc1`, the Potency is reported as inconclusive [cytotoxic, single point]. In the case of `CCN1CCN(c2cc(C)c3cc(NC(=S)N4CC(C)CC(C)C4)ccc3n2)CC1` (stereo not given), the Potency is reported as inconclusive [cytotoxic, single point]. In the case of `COc1cccc(C2=NN(C(=O)CCCC(=O)O)C(c3cccs3)C2)c1` (stereo not given), the activity, negative = less viability is reported as inconclusive: 14.8%. In the case of `CCC[N+]1(CC#CC(O)(c2ccccc2)C2CCCCC2)CCCCC1` (stereo not given), the Potency is reported as “inactive”. In the case of `CCC(C)(C)C1CCc2[nH]nc(C(=O)NN)c2C1` (stereo not given), the Potency is reported as “inactive”. In the case of `CN1CCN(CC(=O)Nc2cc(N(C)C)nc3ccccc23)CC1`, the Potency is reported as inconclusive [cytotoxic, partial curve]. For `COc1ccc(C2=NN3C(C2)c2ccccc2OC32C(=O)N(C)c3ccccc32)cc1` (stereo not given), the Potency was inconclusive [cytotoxic, single point]. In the case of `CCNC(=O)CN(c1ccc(F)cc1)S(=O)(=O)c1ccc2c(c1)OCCO2`, the Potency is reported as “inactive”. In the case of `C=CCC[C@H](Cc1ccc(F)cc1)C(=O)O[C@H](CNC(=O)[C@@H](CC=C)CC(=O)N(CCO)Cc1ccccc1)c1ccccc1`, the Potency is reported as inconclusive [cytotoxic, single point].
